Assay results: PubChem BioAssay AID651820 (National Center for Advancing Translational Sciences (NCATS), 2012)
Out of some 340,000 compounds screened, about 12,000 (3.5%) were called active. This list was built around the results that the source calls inconclusive (neither active nor inactive); the mix of calls is not that of the screen. The call rests on the fitted dose curve; in most records, active means well fitted inhibition curve with a large enough effect; inconclusive means small, poorly fitted or top-dose-only effect, or another doubt; inactive means no such curve, though single readings can be large or run the other way. Potencies of inconclusive entries are left out as doubtful fits.

experiment: qHTS Assay for Inhibitors of Hepatitis C Virus (HCV); settings: Huh7.5.1 HCVcc-Cre (HCVcc is cell-culture hepatitis C virus) infection, luciferase reporter, 44 h; series mostly up to 41.8 µM
Method in brief: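 Antiviral activity was scored by luciferase reporter output from cells infected with HCVcc-Cre (~0.5 moi) in presence of compound, 44 h infection period, cells seeded 1,000/well 4 h prior.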
Potency means the concentration at half of the fitted maximal effect; tags describe the fitted curve by direction and shape.

| Compound | Potency |
| --- | --- |
| O=C(CCn1cnc2ccccc2c1=O)Nc1cccc(Cl)c1 | inactive |
| Cc1ccc(CNC(=O)CN2C(=O)CSc3ccc(S(=O)(=O)N4CCC(C)CC4)cc32)cc1 | inactive |
| Cc1occc1C(=O)NC(C)C1CCCO1 (stereo unspecified) | inconclusive [inhibitor, single point] |
| COC(=O)c1ccc2nc(NC(=O)C(C)(C)C)sc2c1 | inconclusive [inhibitor, partial curve] |
| COc1cccc(-c2nc(NC3CCCC3)c3ccccc3n2)c1O | active: 2.82 µM |
| O=C(CCC(=O)Nc1ccccc1Cl)NNC(=O)c1ccccc1[N+](=O)[O-] | inconclusive [inhibitor, single point] |
| CCN(CC(=O)NC(C)(C)C)Cc1nc2c(Br)cc(Br)cc2c(=O)[nH]1 | inconclusive [inhibitor, full curve, poor fit] |
| C=CCN(Cc1cn(C)nc1-c1cccc(Cl)c1)C1CCS(=O)(=O)C1 (stereo unspecified) | inactive |
| COc1ccccc1C(=O)Nc1cccc(NC(=O)c2ccccc2C)c1 | inconclusive [inhibitor, partial curve] |
| COC(=O)N/N=C/c1c(C)nn(-c2cccc(Cl)c2)c1Cl | inconclusive [inhibitor, partial curve] |
| O=C(NCc1ccccn1)C(=O)NCC1OCCN1S(=O)(=O)c1ccc(F)cc1 (stereo unspecified) | inactive |
| CCOC(=O)C1=NNC(C(=O)c2ccc(Cl)cc2)C1c1ccccc1 (stereo unspecified) | inactive |
| CC(=O)Nc1ccc(S(=O)(=O)N(C)CC(=O)N(C)Cc2sccc2C)cc1 | inactive |
| CC(C)(C)OC(=O)C[C@@H]1C/C=C\C[C@H](CC(=O)N[C@H](CO)Cc2ccccc2)C(=O)N[C@@H](Cc2c[nH]c3ccccc23)COC1=O | inconclusive [inhibitor, single point] |
| CCOC(=O)C1CCCN(C(=O)c2cc(Nc3ccc(OC)c(OC)c3)nc3ccccc23)C1 (stereo unspecified) | inconclusive [inhibitor, partial curve] |
| Cc1ccc2nc(-c3ccccn3)cc(C(=O)NC3CCN(C)CC3)c2c1 | inactive |
| COc1ccc(NC(=O)c2cc3c(=O)n4ccccc4nc3n2C)cc1OC | inconclusive [inhibitor, partial curve, poor fit] |
| COc1ccccc1Nc1ccc(Nc2ccccc2OC)nn1 | inactive |
| Cc1cc[n+](C2=C([O-])c3ccccc3C(=O)/C2=N\S(=O)(=O)c2cccs2)cc1C | active: 11.2 µM |
| C(#Cc1c(-c2ccsc2)sc2ccccc12)c1ccsc1 | inconclusive [inhibitor, partial curve] |
| COCCNC(=O)C1CCN(C(=O)c2cc3sccc3n2Cc2ccc(F)cc2)CC1 | inconclusive [inhibitor, single point] |
| CCN1CCN(C(=O)Cn2cnc3sc(C)c(S(=O)(=O)N4CCN(c5ncccn5)CC4)c3c2=O)CC1 | inactive |
| Cc1ccn2c(NC(C)(C)C)c(-c3cccs3)nc2c1 | inconclusive [inhibitor, full curve, poor fit] |
| O=[N+]([O-])c1cc(-c2ncccn2)cs1 | inactive |

| Compound | Potency |
| --- | --- |
| CC(C)(C)c1nnc(NC(=O)c2cccs2)s1 | inactive |
| Cc1ccc(-c2nn(-c3ccccc3)cc2NC(=O)CCl)cc1 | inconclusive [inhibitor, single point] |
| CCc1ccc(N2CC(C(=O)Nc3ccc(C)c(S(=O)(=O)N4CCOCC4)c3)CC2=O)cc1 (stereo unspecified) | inconclusive [inhibitor, single point] |
| CCOC(=O)c1cnc(SCc2cccc3ccccc23)nc1N | inconclusive [inhibitor, partial curve] |
| CCCCNC(=O)C1CCN(S(=O)(=O)c2c(C)noc2/C=C\c2ccc(OC)cc2)CC1 | inactive |
| COc1ccc(OC)c(Nc2nc3ccccc3n3cnnc23)c1 | active: 10 µM |
| COc1ccc(C(=O)Nc2cccc(-c3cnc4ccccc4n3)c2)cc1 | inactive |
| Nc1nc(-c2cc3c(cc2Cl)OCCO3)cs1 | inconclusive [inhibitor, single point] |
| COCCNC(=S)N(CCc1c(C)[nH]c2ccc(Cl)cc12)Cc1cccs1 | active: 7.08 µM |
| COc1ccccc1CN1CCN(Cc2nc(-c3ccc(C)cc3)oc2C)CC1 | inconclusive [inhibitor, single point] |
| N=c1c2c(-c3ccccc3)c(-c3ccccc3)n(Cc3ccco3)c2ncn1CCO | active: 12.6 µM |
| Cc1ccc(C)c(N2CCN(CCCNC(=O)Cn3cccc3C(=O)c3ccccc3)CC2)c1 | inconclusive [inhibitor, single point] |
| O=[N+]([O-])c1cccc(/C=N/Nc2cc(Cl)nc(-c3ccccc3)n2)c1 | inconclusive [inhibitor, full curve, poor fit] |
| O=C(Cn1ncc2c([nH]c3ccccc32)c1=O)Nc1ccc(CN2CCCCC2)cc1 | inconclusive [inhibitor, partial curve] |
| CSCCC(C(=O)N1C[C@]2(C)C[C@H]1CC(C)(C)C2)N1C(=O)c2ccccc2C1=O (stereo partly specified) | inconclusive [inhibitor, single point] |
| COc1ccc(NC(=S)NCc2ccco2)c(OC)c1 | inactive |
| O=C1CC(SCc2nc3ccccc3[nH]2)C(=O)N1c1ccc(Cl)cc1 (stereo unspecified) | inactive |
| CCOC(=O)CC(=O)CSc1nc(C)nc2c1oc1ccccc12 | inconclusive [inhibitor, partial curve] |
| Cc1cccc(COc2ncnc3nc[nH]c23)c1 | active: 3.98 µM |
| CN(C)S(=O)(=O)c1ccc(C(=O)NCC[N+]2(C)CCCCCC2)o1 | inactive |
| CCNc1nc(NC(N)=S)nc(NC(C)(C)C)n1 | inconclusive [inhibitor, single point] |
| COCCn1nnnc1CN1CCSCC1 | inactive |
| OC(CNCCC(c1ccccc1)c1ccccc1)COc1ccccc1 (stereo unspecified) | active: 12.6 µM |
| Cc1ccc(C(C)C)c(OCC(O)CN2CCc3ccccc3C2)c1 (stereo unspecified) | inconclusive [inhibitor, single point] |

| Compound | Potency |
| --- | --- |
| Nc1nc(CN2CCN(c3ccccn3)CC2)nc(Nc2ccc(Cl)cc2)n1 | inconclusive [inhibitor, single point] |
| C/C=C(\C)C(=O)N[C@@H](c1ccccc1)[C@@H](O)C(=O)O[C@H]1C[C@@]2(O)[C@@H](OC(=O)c3ccccc3)C3[C@](C)(C(=O)[C@H](OC(C)=O)C(=C1C)C2(C)C)[C@H](O)C[C@H]1OC[C@@]31OC(C)=O (stereo partly specified) | inconclusive [inhibitor, full curve, poor fit] |
| O=C(CN1c2cccc3cccc(c23)S1(=O)=O)Nc1ccccc1Br | inactive |
| O=[N+]([O-])c1ccccc1OCCOc1ccccc1[N+](=O)[O-] | inconclusive [inhibitor, partial curve] |
| C/C(=N\OCC(=O)Nc1ccccc1C(C)(C)C)c1ccc2c(c1)OCCO2 | inconclusive [inhibitor, partial curve, poor fit] |
| CCOC(=O)c1ccc(NC(=S)NC(=O)c2nn(CC)cc2Br)cc1 | inactive |
| O=C(NCc1ccccc1)Nc1cccn(Cc2ccccc2Cl)c1=O | active: 12.6 µM |
| O=C(C1COc2ccccc2O1)N1CCN(Cc2ccccc2)CC1 (stereo unspecified) | inactive |
| CCCCCC(C)NC(=O)c1ccoc1C (stereo unspecified) | inactive |
| O=C(c1ccc(Cl)cc1Cl)N1CCc2ccccc21 | inconclusive [inhibitor, single point] |
| C[C@@]12CCC=C[C@H]1[C@H](c1ccccc1Br)N(Cc1ccccc1)C2=O | inconclusive [inhibitor, partial curve, poor fit] |
| CC(Oc1ccc2c(-c3ccccc3)cc(=O)oc2c1)C(=O)NCCCn1ccnc1 (stereo unspecified) | inconclusive [inhibitor, full curve] |
| O=C(CN1C(=O)C2C3C=CC(C4CC34)C2C1=O)Nc1cccc2ncccc12 (stereo unspecified) | inactive |
| Cc1c(Cl)c([N+](=O)[O-])nn1CC(=O)Nc1ccc2c(c1)OCO2 | inactive |
| CCN1C(=O)/C(=C\c2cn(CCC#N)nc2-c2ccc(F)cc2)SC1=S | inconclusive [inhibitor, single point] |
| CN1C(C(=O)Nc2ccc(OC(F)(F)F)cc2)=CC(c2cccs2)=NS1(=O)=O | inconclusive [inhibitor, single point] |
| COc1ccc2nc(Nc3nc(-c4cc5ccccc5oc4=O)cs3)sc2c1 | inconclusive [inhibitor, full curve, poor fit] |
| Cc1c(CCC(=O)NCCCn2ccnc2)c(=O)oc2cc3oc4c(c3cc12)CCCC4 | inconclusive [inhibitor, single point] |
| CC(=O)c1cccc(OCC(=O)Nc2ccccc2N2CCOCC2)c1 | inconclusive [inhibitor, single point] |
| CCCOc1ccc(-c2nc(C#N)c(N3CCN(C)CC3)o2)cc1 | inconclusive [inhibitor, single point] |
| Cc1cc2occ(CC(=O)NC3=NCCS3)c2cc1C(C)C | inconclusive [inhibitor, single point] |
| COc1ccc(S(=O)(=O)N(C)C)cc1NC(=O)c1ccc2c(c1)NC(=O)C(C)S2 (stereo unspecified) | inconclusive [inhibitor, partial curve] |
| CCOC(=O)N1CCN(C(=O)CCN2C(=O)/C(=C\c3ccccc3OC)SC2=S)CC1 | inactive |
